# In a melting point compilation (Tetko et al.; mined from patent text by program, amines drawn as free bases though some values may be those of a salt):
row,melting point,SMILES
1,165 °C,OC1(c2nc3ccccc3s2)CCC2(CC1)OCCO2
2,253 to 255 °C,O=C(Nc1cccc(S(=O)(=O)NC2(CO)CCCC2)c1)c1cnn2c(C(F)(F)F)cc(-c3ccc(Cl)cc3)nc12
